# Measurements published in the antibiotic and cytotoxicity screens of Wong et al. (2023).
# Some of the results follow.
# Tests used:
# HSkMC = human skeletal muscle cells; assay: cytotoxicity call (relative viability < 0.9); conditions: 10 µM
# HepG2 = assay: cytotoxicity call (relative viability < 0.9); conditions: 10 µM
# S. aureus RN4220 = assay: growth inhibition call (relative growth <= 0.2); conditions: 50 µM
Structure (SMILES),cytotoxicity call (HSkMC),cytotoxicity call (HepG2),growth inhibition call (S. aureus RN4220)
COc1ccc(S(=O)(=O)Nc2ccc3c(c2)C(=O)N([C@H](C)CO)C[C@H](C)[C@H](CN(C)CC2CCCCC2)OCCCC[C@@H](C)O3)cc1,inactive,inactive,inactive
C[C@@H]1CCCCO[C@H](CN(C)S(=O)(=O)c2ccc(F)cc2)[C@@H](C)CN([C@H](C)CO)C(=O)c2cc(NC(=O)Nc3ccc4c(c3)OCO4)ccc2O1,inactive,active,inactive
COc1ccc(C#Cc2ccc3c(c2)[C@]2(C(=O)N3)[C@H](C(=O)Nc3nc4ccccc4s3)[C@H]3C(=O)O[C@H](c4ccccc4)[C@H](c4ccccc4)N3[C@@H]2c2ccccc2OCCO)cc1,inactive,inactive,inactive
COc1ccc(NC(=O)Nc2ccc3c(c2)C(=O)N([C@H](C)CO)C[C@H](C)[C@@H](CN(C)C(=O)Nc2ccc(C(F)(F)F)cc2)OCCCC[C@@H](C)O3)cc1,inactive,inactive,inactive
C=CC[C@H](CC(=O)N(CCO)Cc1ccccc1)C(=O)NCCOC(=O)[C@H](CC=C)CC(=O)OC(C)(C)C,inactive,inactive,inactive
CC(C)C(=O)NCc1nccc(N(C)C)n1,inactive,inactive,inactive
C[C@H]1CCCCO[C@H](CN(C)Cc2ccc(C(F)(F)F)cc2)[C@@H](C)CN([C@@H](C)CO)C(=O)c2cc(N(C)C)ccc2O1,inactive,inactive,inactive
Cc1ccc(S(=O)(=O)N(C)C[C@H]2OCCCC[C@@H](C)Oc3ccc(NC(=O)Cc4ccccc4)cc3C(=O)N([C@@H](C)CO)C[C@H]2C)cc1,inactive,inactive,inactive
C[C@H](O)C#Cc1ccc2c(c1)O[C@@H](CN(C)C(=O)CN(C)C)[C@H](C)CN([C@@H](C)CO)S2(=O)=O,inactive,inactive,inactive
CC(C)NC(=O)Nc1ccc2c(c1)C(=O)N([C@H](C)CO)C[C@H](C)[C@H](CN(C)Cc1ccc(C(F)(F)F)cc1)OCCCC[C@@H](C)O2,inactive,inactive,inactive
CC(C)(C)[S@](=O)N1Cc2cc(C(=O)NCc3ccccc3F)nc(-c3cccc(-c4cccnc4)c3)c2[C@@H]1CCO,inactive,inactive,inactive
C[C@@H]1CCCCO[C@@H](CN(C)C(=O)Nc2ccc3c(c2)OCO3)[C@@H](C)CN([C@H](C)CO)C(=O)c2cc(NS(=O)(=O)c3ccccc3)ccc2O1,inactive,inactive,inactive
COc1cccc(-c2ccc3c(c2)O[C@@H](CN(C)Cc2cncnc2)[C@H](C)CN([C@H](C)CO)S3(=O)=O)c1,inactive,inactive,inactive
O=C(N1CCOCC1)[C@@]1(CCS(=O)(=O)c2ccccc2)COC(c2ccc(OCCCO)cc2)=N1,inactive,inactive,inactive
C[C@@H]1CCCCO[C@@H](CN(C)C(=O)CCC(F)(F)F)[C@H](C)CN([C@H](C)CO)C(=O)c2cc(NS(=O)(=O)c3ccccc3)ccc2O1,inactive,inactive,inactive
COc1ccc2c3c([nH]c2c1)[C@@H](CO)N(C[C@]13CN(C1)S(=O)(=O)C)C(=O)C1CCOCC1,inactive,inactive,inactive
C[C@H](CO)N1C[C@H](C)[C@@H](CN(C)S(=O)(=O)c2ccc(F)cc2)OCCCC[C@H](C)Oc2ccc(NC(=O)NC3CCCCC3)cc2C1=O,inactive,inactive,inactive
Cc1ccc2sc(N(CCCN(C)C)C(=O)c3ccc(S(=O)(=O)N(C)Cc4ccccc4)cc3)nc2c1C,active,active,inactive
COc1ccc(-c2cnc3c(c2)C(=O)N([C@@H](C)CO)C[C@@H](C)[C@@H](CN(C)C(=O)Cc2cccnc2)O3)cc1,inactive,inactive,inactive
COc1cc(/C=C(\C#N)C(=O)Nc2nnc(C(F)(F)F)s2)ccc1OCc1ccc(C(F)(F)F)cc1C(F)(F)F,inactive,inactive,inactive
CCn1c(C)cc(C)c(C(=O)N2C[C@H]3C(=O)NC[C@@]3(C(=O)O)C2)c1=O,inactive,inactive,inactive
NC1=NC(=O)C[C@H](Cc2ccccc2)N1,inactive,inactive,inactive
CC(C)CN1C(=O)[C@@]2(Cc3ccccc31)c1ccccc1C(=O)N(Cc1ccccc1)[C@H]2c1ccc(CO)cc1,inactive,inactive,inactive
C[C@H](CO)N1C[C@H](C)[C@H](CN(C)S(=O)(=O)c2cccs2)Oc2ccc(NC(=O)CCN3CCOCC3)cc2CC1=O,inactive,inactive,inactive
